# The campaign covered roughly 110,000 compounds. About 230 (0.21%) showed an effect of 50% or more. Some of the results follow.
# Target: DPAP1 (Plasmodium falciparum, UniProt Q8IIJ9)
# Experiment: primary screen, percent inhibition; read by cleavage of a fluorogenic dipeptide substrate; higher = more effect of the substance
# Design: species or system P. falciparum D10 trophozoite lysates; single well
# 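Further: 30 min substrate incubation versus DMSO and 10 µM JCP410 controls.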
# DPAP1, sequence (Q8IIJ9 whole entry, looked up): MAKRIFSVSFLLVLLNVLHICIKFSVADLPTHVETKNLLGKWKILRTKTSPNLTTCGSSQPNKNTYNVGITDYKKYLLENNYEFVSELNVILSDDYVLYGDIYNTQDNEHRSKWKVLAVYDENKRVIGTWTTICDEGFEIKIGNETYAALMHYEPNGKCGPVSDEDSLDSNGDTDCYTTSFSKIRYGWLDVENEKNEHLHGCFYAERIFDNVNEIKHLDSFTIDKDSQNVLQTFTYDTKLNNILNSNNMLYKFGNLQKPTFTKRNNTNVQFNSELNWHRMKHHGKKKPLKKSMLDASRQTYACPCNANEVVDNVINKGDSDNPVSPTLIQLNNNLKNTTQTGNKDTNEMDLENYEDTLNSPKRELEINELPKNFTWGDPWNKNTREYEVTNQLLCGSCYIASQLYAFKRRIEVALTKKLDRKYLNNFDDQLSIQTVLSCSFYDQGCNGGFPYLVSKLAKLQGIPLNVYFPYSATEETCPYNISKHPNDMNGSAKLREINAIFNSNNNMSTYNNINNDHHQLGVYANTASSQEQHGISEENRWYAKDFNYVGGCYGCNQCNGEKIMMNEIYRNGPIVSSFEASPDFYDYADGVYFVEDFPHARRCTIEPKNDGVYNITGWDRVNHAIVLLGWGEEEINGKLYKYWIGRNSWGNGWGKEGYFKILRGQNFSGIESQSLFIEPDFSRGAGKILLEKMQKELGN
row,SMILES,% Inhibition @ 10 uM
1,CCC(C)C1C(C#N)=C(N)OC2=C1C(=O)CC(C)(C)C2 (stereo not drawn),1.82%
2,Cc1ccc(CN(C(=O)c2cc3ccccc3oc2=O)C2CCS(=O)(=O)C2)o1 (stereo not drawn),3.77%
3,CS(=O)(=O)CC[C@@H](C(=O)NCCCc1ccccc1)N1Cc2ccccc2C1=O,-2.25%
4,Cn1c(=O)[nH]c(=O)c2c1nc(N1CCN(CCO)CC1)n2Cc1ccccc1Cl,5.43%
5,CCc1ccc(OCC2c3cc(OC)c(OC)cc3CCN2C(=O)C(C)C)cc1 (stereo not drawn),-4.82%
6,CC(C)c1ccc(OCC(=O)Nc2ccc(S(=O)(=O)N3CCCC3)cc2)cc1,2.01%
7,CCOC(=O)C1=C(C)N=C2SC=C(c3ccccc3)N2C1c1ccccc1 (stereo not drawn),-3.78%
8,COC(=O)c1ccc(CN2CCCN(C)CC2)cc1,0.273%
9,COc1cc(OC)cc(-c2n[nH]c(N)n2)c1,3.94%
10,CC(=O)c1ccc(NC(=O)CC2SC(N)=NC2=O)cc1 (stereo not drawn),5.83%
11,Cc1nc2c(sc3nc4c(cc32)COC(C)(C)C4)c(=O)n1CCc1ccccc1,1.64%
12,CS(=O)(=O)N(CC(=O)Nc1cccc2ccccc12)c1cccc(F)c1,14%
13,Cn1ccc(C(=O)Nc2cnn(Cc3c(Cl)cccc3Cl)c2)n1,-1.28%
14,C=CCO/C(O)=C1/C(C)=Nc2nc3ccccc3n2C1c1ccc(C)o1 (stereo not drawn),-5.19%
15,O=C(c1ccccc1)C(c1ccccc1)N1CCCC1 (stereo not drawn),3.05%
16,COc1ccc(CN2CCC(O)CC2)cc1Br,-4.35%
17,COc1ccc(CNC(=O)C2CCCN2S(=O)(=O)c2cccc3nsnc23)cc1 (stereo not drawn),-4.1%
18,Cc1nc2c(c(C)nn2C(C)(C)C)c(C)c1CCC(=O)NC(C)c1ccccc1 (stereo not drawn),-2.45%
19,O=C(Nc1cccc(Cl)c1)C1CC(=O)N(c2ccccc2)C1 (stereo not drawn),0.35%
20,Cc1ccc(/C=C2\N=C(c3ccc(C)cc3)OC2=O)cc1,2.31%
21,Cn1c(=O)c2c(nc(SCCO)n2Cc2ccc(Cl)cc2)n(C)c1=O,-5.96%

row,SMILES,% Inhibition @ 10 uM
1,Cc1c(C)n(Cc2ccc(F)cc2)c2ccc(C(=O)N3CCC(C(N)=O)CC3)cc12,-1.19%
2,CN(C)S(=O)(=O)c1ccc(-c2csc(-c3ccc(Cl)cc3)n2)cc1,-3.34%
3,O=C(CN1C(=O)S/C(=C/c2c[nH]c3ccccc23)C1=O)Nc1ccc2c(c1)OCO2,5.25%
4,O=C(c1cc(-c2ccco2)[nH]n1)N1CCn2c1nc1ccccc12,-2.18%
5,CCOC(=O)N1CCC(/N=C/c2ccc(OC(C)C)cc2)CC1,-1.03%
6,OCCNc1nc2ccccc2n2nnnc12,-0.522%
7,COc1ccc2cc(C(=O)Nc3ccc(S(N)(=O)=O)cc3)sc(=O)c2c1OC,3.86%
8,Nc1nonc1-c1noc(-c2ccc(COc3ccccc3Br)cc2)n1,5.49%
9,COc1ccc2c(CNC3CCCC3)c(C(=O)O)[nH]c2c1,1.53%
10,O=C(CSc1nc2ccccc2c2nc3ccccc3n12)NCc1ccccc1,4.33%
11,Cc1ccc2oc(C(=O)NCc3ccncc3)cc(=O)c2c1,0.248%
12,CCc1nn(C(C)C(=O)N2CCC3(CC2)OCCO3)c(=O)c2cc3occc3n12 (stereo not drawn),-0.281%
13,Cc1ccc(S(=O)(=O)N2CCN(C)CC2)cc1[N+](=O)[O-],6.53%
14,COc1ccc2ccccc2c1C(O)c1nccn1C (stereo not drawn),-4.43%
15,Cc1nc(SCc2ccc(F)cc2)c2c3c(sc2n1)CCC3,10.9%
16,Cn1c(=O)n(C)c2cc(/C=C3/SC(=O)N(Cc4ccc(F)cc4)C3=O)ccc21,5.73%
17,CCN1C(=O)/C(=C2\SC(N)=NC2=O)c2cc(Br)ccc21,-2.16%
18,CCC(C)NC(=O)Cn1ncc2c(C)n(Cc3ccccc3)c(C)c2c1=O (stereo not drawn),2.84%
19,CCCOc1ccc(/C=C2\SC(=O)N(CC(=O)N3CCOCC3)C2=O)cc1,4.22%
20,COc1cccc(CN2CCN(c3ccc(Cl)cc3)CC2)c1,1.63%
21,COc1ccc(-c2noc(=O)n2Cc2ccccc2Cl)cc1,1.91%

row,SMILES,% Inhibition @ 10 uM
1,O=C(NC1CCCCCC1)c1cc2c(s1)CS(=O)(=O)C2,-3.67%
2,CCCCNC(=O)C1CCN(C(=O)c2ccc(-n3c(C)cc4ccccc43)s2)CC1,-2.1%
3,COc1ccc(C(=O)N2CCN(Cc3cc(OC)c(OC)c(OC)c3)CC2)cc1OC,3.56%
4,Cc1ccc2c(=O)c(C(=O)c3ccc(Cl)cc3)cn(CC(=O)NCC3CCCO3)c2n1 (stereo not drawn),2.18%
5,Cc1ccc(CN2C(=O)CSc3ccccc32)cc1,-1.44%
6,COc1ccc(OC)c(/C=C2N=C(/C=C/c3ccc(C)cc3)OC\2=O)c1,-1.47%
7,CCN(CC)c1ccc(NC(=O)C2CCCC2)cc1,-1.52%
8,CCOc1ccc(CC(=O)NCc2cn(C)nc2C)cc1OCC,-3.78%
9,CCOc1ccccc1-c1cc(NC(=O)c2cnn(-c3ccccc3)c2-n2cccc2)on1,5.4%
10,Cc1cc(C)n(C(CC(=O)O)C(=O)O)n1 (stereo not drawn),-2.08%
11,Cc1ccc(S(=O)(=O)Nc2nnc(C)s2)cc1,-1.77%
12,CCN(CC)c1nc2c(-c3cccc(C(F)(F)F)c3)nnn2c2ccccc12,-8.42%
13,COCc1cc(C)n(CC(=O)c2ccccc2)c(=O)c1C#N,1.13%
14,COc1cc(/C=C2/S/C(=N/c3ccccc3)N(C)C2=O)cc(Cl)c1O,6.69%
15,Cc1ccc(COc2ccc(C3C(C#N)=C(N)Oc4cc(O)ccc43)cc2)cc1 (stereo not drawn),3.87%
16,Cc1nc2ccccc2c2oc(C(=O)N3CCN(C(=O)c4ccco4)CC3)cc12,-7.13%
17,O=C(CNc1ccc2ccccc2c1)c1ccc(Cl)cc1,-5.33%
18,CCC(C(=O)NCc1ccccc1OC)n1nc(C)c2sc3ccccc3c2c1=O (stereo not drawn),3.39%
19,CCC[C@@H](/C=C/S(=O)(=O)c1ccccc1)NC(=O)[C@H](CC1CCCCC1)/N=C/NS(=O)(=O)c1ccccc1,-3.14%
20,Oc1ccccc1-c1cc(-c2ccccc2)nc(N2CCNCC2)n1,-4.26%
21,CCn1cc(C(=O)OCc2cc(C)ccc2C)c(=O)c2ccc(C)nc21,-5.28%

# From paper PMC6919601, “Identification of Plasmodium dipeptidyl aminopeptidase allosteric inhibitors by high throughput screening” (PLoS ONE, 2019)
